Experimental data: PubChem BioAssay (NCI)
The source holds several records for some structures; these can differ, active in one and inactive in another.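 How to read the values: 0–100, growth inhibition (40 = 60% inhibited); 0, no net growth; -100 to 0, cell death (-40 = 40% of starting cells died; -100 = all dead).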 A number of entries come with more than one value. This is not the full list of results. An entry can have further records. Rule for the calls: active = growth percent below 10; inactive = the rest. The screen tested this drug many times, at the concentration stated with the values; one value stands for one run. Brackets with × say how often a value occurs here.

Experiments:
UO-31 renal = assay: NCI-60 one-dose screen, 48 h (100 = growth as untreated, 0 = no growth, -100 = all killed); settings: 25 µM
TK-10 renal = assay: as above; settings: 0.25 µM

Structure (SMILES): COc1cccc2c1C(=O)c1c(O)c3c(c(O)c1C2=O)C[C@@](O)(C(=O)CO)C[C@@H]3OC1CC(N)C(O)C(C)O1 (stereo not given in full)
- growth (UO-31 renal; runs of 1998): active: -11.3 (2×), -22.7, 1.92, 0.629, -9.3, -10.2, -49.8, -27.5, -35.1, -22.8, -24.8, -10.1, -10, -24.1, -14.2, -18.2, -26.5, -15.6, -10.3, -30.6, -31, -24.2% and inactive: 13.8%, 11.1% (2×)
- growth (UO-31 renal; runs of 1999): active: -8.57, -30.7, -0.186, -37.2, -27.3, -38, -100 (4×), -83.6, -92.8, -97.3, -87.9, -36.8, -94.2, -95.9, -96%
- growth (UO-31 renal; runs of 2000): active: -71.3, -100, -77.1, -94.9%
- growth (TK-10 renal; runs of 2006): inactive: 73.1%, 65.9%
- growth (TK-10 renal; runs of 2007): inactive: 66.9, 39.2, 73.5, 58, 58.5, 61.3, 75.9, 64.2, 59.3, 71, 76, 70.2, 91.4, 51.7, 41.7, 62, 20.7, 62.8, 127, 82.1, 67.2, 46, 64.9, 76.7, 68.6, 78.7, 60.9, 68.1, 51, 70.3, 76.5, 74.1, 63.8, 60.8, 72.3, 55.1, 57.9, 53.4, 55.6, 56, 70.9%
- growth (TK-10 renal; runs of 2008): inactive: 58.8, 61.9, 32.8, 51.8, 71, 71.9, 76.5, 73.6, 68.7, 73.2, 68.8, 67.8 (2×), 65.1 (2×), 70.9, 37, 71.2, 61.5, 59.7, 66.3, 41.9, 58.6, 53.5, 65.9 (2×), 82.7, 68.6, 63.1, 92.2, 44.6 (2×), 134, 64.1, 49.1, 38.9, 47.6, 43.3, 35.1, 47.5, 33.7, 44.5, 76, 70.5, 81.8, 70.8, 91.4, 77.7, 51.2, 60.7 (2×), 79, 64.2, 58.5, 46, 83.1, 61.8, 67.3%
- growth (TK-10 renal; runs of 2009): inactive: 72, 68.4 (2×), 59.5, 70.2, 62.9, 65.6 (2×), 66.5, 76.2, 79.7, 62.4, 65 (2×), 62, 61.5, 60.6, 67.4 (2×), 67.7, 65.2 (2×), 77.4 (2×), 70.1, 78.4, 55.2, 74.6, 62.7, 58.1, 55, 61.7 (2×), 59, 63.3, 65.4, 60.7, 55.8, 37.7, 58.3, 59.9, 55.1, 68.1, 76.5, 61.8, 52.5, 55.5, 69.7, 73.2, 80.2, 25.1, 50.2, 30.6, 34.5, 54.3, 33.8, 51, 35.2, 67.2, 67, 80.7, 69.1, 79, 80.1, 63.8, 61, 45.5, 48, 54.5, 44.9%
- growth (TK-10 renal; runs of 2010): inactive: 65.9, 67.9, 46.8, 64.5, 67.5, 59.7, 83, 77.9, 79.1, 85.8, 73.8, 55.5, 57.5, 64.9, 54.3, 55.7, 66.7, 52.6, 40.8, 36.7, 29.3, 31, 48.5, 52, 29.7 (2×), 39.2, 30.5, 41.2, 46.5, 41, 27.3, 32.7, 38.2 (2×), 51.1, 69, 66.5, 70.5, 56.3, 50, 63.1 (2×), 67.2, 49.6, 30.9, 40.1, 54.5, 53.1, 46.1, 33.7, 44.3, 56, 54.2%
- growth (TK-10 renal; runs of 2011): inactive: 62.3 (2×), 52.7, 42.5, 51.8, 70, 63 (2×), 53, 26.4, 73.5, 42.9, 65.5, 60.6, 68.7, 74.8, 73.6, 69.1, 78.6, 72.2 (2×), 76.9, 71.6, 78.7, 74.2, 89.2, 60.2, 59.2, 66.5, 54.5, 58.1, 65.1, 86.2, 54.3, 52.3, 66.7, 68.2, 64.7, 54.9, 85.8 (2×), 76, 61.8, 76.7, 80.4, 85.1, 78, 93.4, 59.6, 56.3, 50.4, 57.8, 53.8, 56.6, 65, 71.3, 59.1, 57.6%
- growth (TK-10 renal; runs of 2012): inactive: 75.1, 60.4, 71.7 (2×), 75.5, 55.9 (2×), 42.7, 72.7, 79.4, 74.9 (2×), 77.5, 82.7, 58.1, 41.7, 48.8, 43.7, 57, 49.9, 43.1, 54.2, 58.6, 68.9, 63, 62.8, 67.6, 67.5, 83.2, 77.8, 78.6, 82.4, 64.6, 71.2 (2×), 60.2, 82.5, 57.6, 56.6, 62.1, 74.2, 66.5, 71, 74.1, 67.9, 79.3, 83.6, 80.6, 76.2, 70.9, 76.5, 58.2, 59.1 (2×), 50.6, 65.8, 60.7, 67.4, 72.3, 70.1, 53.2, 49.4, 68, 70%
- growth (TK-10 renal; runs of 2013): inactive: 48.7, 76, 69.1, 51.5, 54.8, 65, 65.2 (2×), 70.5, 72.9, 71.7 (2×), 67.4, 76.3, 64.6, 70.1, 49.7, 64.2, 73.9, 70.7 (2×), 77.4, 71.5, 74.1, 70, 73, 77 (2×), 66.8, 84.6, 70.2 (2×), 73.7 (2×), 60.6, 68.8, 65.6, 67.9, 72.1, 57.9, 68.4, 63.4, 62.2, 70.4, 66.9, 60.4, 59, 80.4, 80.5, 76.5, 69, 62.8, 72, 69.6, 65.7, 54.5, 65.1, 66.6, 47.1, 71.6, 62.3, 78.1, 68.3, 62.9, 60.8, 81.8%
- growth (TK-10 renal; runs of 2014): inactive: 62.9, 61.7, 66.6 (2×), 63.1 (2×), 63, 68, 65.5, 66.3, 38, 60.7, 68.6 (2×), 70.1, 72.4, 68.7 (2×), 72.8, 76.3, 76, 86.1, 85.7, 67.2 (2×), 63.7, 66.8, 66, 55.3, 57.2, 59.9, 56.8, 55.5, 53.8, 63.5, 62.5, 56.4, 57.3 (2×), 66.9 (2×), 74.5, 72.3, 71.7, 78.6, 76.9, 79.1, 75.6, 70.5, 70.6, 74.2, 90.7, 89.6, 84.3, 58, 51.3, 43.2 (2×), 43.8, 64.8, 30.3, 50.9 (2×), 57.1, 56, 33.6, 53.5, 55.7 (2×), 59.1, 61.6, 51.1, 58.9, 48.1, 57.5, 34.9, 51.8, 50.8, 62.3, 70.7, 45.9, 46.1, 54.4, 45, 64.9%
- growth (TK-10 renal; runs of 2015): inactive: 66.7, 59.2, 43, 68.7, 57.5, 51.7, 57.4, 61.9 (2×), 60.4 (2×), 49.1, 45.6, 53.8, 53.2, 55.6 (2×), 62.9 (2×), 59.3, 50.2, 46.3, 60.9, 41.6, 56.2, 52, 57.8, 49.3, 47.8, 46.5, 55.9, 52.5, 54.7, 47.3, 48.8, 48.2, 52.3, 53.6, 58.6, 54.2, 51.9, 56.6, 43.7, 62, 59, 65.8, 59.7, 65.6, 45.3, 62.3, 66.9, 72.1, 74.7, 54.6, 55.1, 70.7, 71.1, 62.8, 56.7, 57.2, 47.4, 55, 50.1, 63.4, 70.8, 61.3, 44.6, 75.3 (2×), 75.8, 69.6, 70.1, 76.3, 71.6, 79.6, 76.7, 77.3, 70, 80.2, 81.2, 85.4, 51.3, 33.5%
- growth (TK-10 renal; runs of 2016): inactive: 59.3 (2×), 54.4, 59 (2×), 47.3, 60.3, 77.8, 66.2 (2×), 72.9, 69, 70.2, 59.4 (2×), 61.8, 74.7, 73.7, 64.8, 55, 53.2 (2×), 51, 34.2, 52.6, 46.2, 53.5, 53.6, 51.4 (2×), 51.1, 50, 53.3, 53.8, 67, 64.6, 64.1 (2×), 66.9, 62.9, 73.2, 75.5 (2×), 71.9, 68.8, 72, 69.3, 71.4, 67.3, 58, 58.8, 67.9, 72.1, 58.5, 56.7, 61.9, 71, 68.2, 80.5, 81.9, 65.8, 71.2, 78.4, 78.9, 80.3, 83.6, 76.9, 79.3, 56.1, 50.7, 61, 60.6, 61.3, 48.4%
- growth (TK-10 renal; runs of 2017): inactive: 61.5 (3×), 60.3 (3×), 51.5, 62.1 (2×), 58.5 (2×), 57.6, 59.9 (3×), 55.9, 49.8, 55.3, 57, 61, 63.3, 58.9 (2×), 64.2, 57.9, 58.3, 59.2, 59, 56.9, 51, 50.7, 58.8 (2×), 52.8, 49.5, 44.9, 54.2, 59.7, 54.5, 55.4 (2×), 53.1, 62, 56.3, 57.4, 52.3 (3×), 54.8, 49.1, 59.4, 58.6, 63.9, 68.3, 59.8, 67.1, 65, 51.6, 55.1, 60.4 (2×), 54.7, 43.5, 48.8 (2×), 56, 56.1, 59.3, 56.5, 62.2, 62.8, 63, 62.6, 64.1 (2×), 73.5, 70.4, 67.7, 63.1, 54.6, 44.8, 39.6, 76.2, 71.1, 51.9, 46.4, 53.8, 44.5%
